Data on 14 molecules can be found in paper PMC12136788.

Sequences and labels used below:
B1: chr2:155483576:155483577:-_ENSMUSG00000038324_ENSMUST00000041059|mus_hu|FALSE|FALSE (ssRNA)
RNA: GGGAGUUCUACAGUCCGACGAUCUUGAGCAUUUUUGGCAAGAAGCGUGUGCUUGUCAUCAUUCCCUGUAUCCAUCUCUGAAAUGGUGACAGCCAGAAUCCGGCAGAAAUUAGCGAGCUGCUGCUGAUCGAAAUUGGAUACUAACAACAGAGGAUUGAGCAUCA
B2: chr17:57759754:57759755:+_ENSG00000141367_ENST00000269122|hu_mus|motif|central (ssRNA)
RNA: GGGAGUUCUACAGUCCGACGAUCAUCAUAACAACGGUCACCAACUUGCUGAAUAUGAGCAUUAUUUGGCCCAUUGAUGAACUCUUCGGAUUCUGCAAGGCGGUUUGUUUUAGCCAGUGCAAAUAUCAAUUCUGUCUCCACAUACAACAGAGGAUUGAGCAUCA
B3: chr7:140710375:140710376:-_ENSG00000090263_ENST00000324787|hu_hu|motif|central (ssRNA)
RNA: GGGAGUUCUACAGUCCGACGAUCGUGGUGAUUUGGAUACCAAUCAUAAGUCUCCUUCUUCUUGGCCAAGGGCAGUUCACGGAACAGUUUCACCACUUUCAUAGACUUGGAAUUAGUAGGCCUGGUGACUUCACCAAAUAGCCGCAACAGAGGAUUGAGCAUCA
B4: chr2:115689366:115689367:-_ENSMUSG00000027210_ENSMUST00000074285|mus_hu|motif|central (ssRNA)
RNA: GGGAGUUCUACAGUCCGACGAUCCUUUGAAGAAGAGUCCCCCAAAAAUAAUAAUAAGAAUUGGCUUAUGAAGCACGAACGGUAAAGAUCUGUUUGAAACUAAAGGACACAUUUAUGGAGGAACAAAGGCCGGGCAUGAAAACACAACAGAGGAUUGAGCAUCA
B5: 22114058_22114178_5692_3pUTR_ENSG00000100030_ENST00000215832|human|control|control (ssRNA)
RNA: GGGAGUUCUACAGUCCGACGAUCUACAGCUGACAGUCUGAAGCAGAGGAAGAAAGCAGAGACGCAGAAUGACUGGCCCACAGCCAGCCGCAGUUAUAAGCAGGGGGUAGUUCUGAACCCAGCUGGAUGGGUCCAAGGCCUGUGCAACAGAGGAUUGAGCAUCA
B6: chr4:21803547:21803548:+_ENSMUSG00000028248_ENSMUST00000098238|mus_hu|motif|central (ssRNA)
RNA: GGGAGUUCUACAGUCCGACGAUCCACUUCAAGAUUGAUCUAAAAAACAUUUUAAGAUAUGAAAAUGUUAUACAACUUAUCGGUUACAAAUUAAUCAGAUAAUUCUGCAAUUAGGUACACUGUGUUAGCUCGCCUACAUAAAAACAACAGAGGAUUGAGCAUCA
B7: chr5:44151052:44151053:-_ENSMUSG00000039753_ENSMUST00000047857|mus_hu|motif|central (ssRNA)
RNA: GGGAGUUCUACAGUCCGACGAUCGUCAGUCUGGGUAAGAUCCAGAUGCUCCAGGUUAGGACAAAGCUCUAAAAUCUGCCGGACCAUUUUGCUGGAAACUGCAGAGCUGUAUGCUAAUACUAAGGUUUUUACAGAAGUACCAACCAACAGAGGAUUGAGCAUCA
B8: chr3:118931466:118931467:-_ENSG00000121578_ENST00000480814|hu_mus|FALSE|FALSE (ssRNA)
RNA: GGGAGUUCUACAGUCCGACGAUCCACUGUGAUGUUGGCAUAUAAAGGGUUGUGCUCCACAGAGAGUAAUCUGUAAGAACAACUCGAUAAGCCAUCUGUUUUCCAGACCCGGGACAUCUGUUGCAACAGCUUCAUUCGGCCCAUCAACAGAGGAUUGAGCAUCA
B9: chr4:59614313:59614314:+_ENSMUSG00000028383_ENSMUST00000030078|mus_mus|FALSE|FALSE (ssRNA)
RNA: GGGAGUUCUACAGUCCGACGAUCGUUGCCAGUAAAACUUUUUGGCCUUUUGAAAAUGGAAUAUGCAGCGUCCGCAAUGAUGUCAACUUUUCUACAUUGGUUUUCAACACCAGAUCCUCCCAGCAUAUCCAUAGCAGCAGUGUGCAACAGAGGAUUGAGCAUCA
B10: chr16:46990815:46990816:-_ENSG00000069345_ENST00000563158|hu_mus|FALSE|FALSE (ssRNA)
RNA: GGGAGUUCUACAGUCCGACGAUCUCGAAAUGAAGAUGUAAAGCUCUGUGGUUAGUUUAAAUUAUACACUCUGUGGAUACGAUACCAAUUUUAGAAGUUACACAUAGAUCAACAGAUGUCCAUCAGUCCAUCUGGACUUAUCAGCAACAGAGGAUUGAGCAUCA
B11: 30560643_30565594_417_CDS_ENSG00000104687_ENST00000414019|human|control|control (ssRNA)
RNA: GGGAGUUCUACAGUCCGACGAUCACCACCUGUGGCGAUCAGGAUGUGUGGGGCGGUGUACUUUUUCCCACUGACCUCUAUUGUGGGCUUGGGAUCACUCGUGAAGGCUGCAUGGCCACGGAUGAUUUCUAUAUGGGACUUGGUCAACAGAGGAUUGAGCAUCA
B12: chr9:95013113:95013114:-_ENSG00000196305_ENST00000443024|hu_hu|FALSE|FALSE (ssRNA)
RNA: GGGAGUUCUACAGUCCGACGAUCUUCAGUGAGAAAAGGUGUGUAGGGAGCCAUAAGUCUGCAAAGAGAAAGCAGAACACUAAACAAGGUUUCUAGGGCCAUGACACAAUCCUCCAUCCCAUUUUCACCCUUUAAUCUUCUGCGCAACAGAGGAUUGAGCAUCA
B13: chr5:128440902:128440903:+_ENSG00000066583_ENST00000173527|hu_mus|hu_hu_hu_mus_True|78_108 (ssRNA)
RNA: GGGAGUUCUACAGUCCGACGAUCUUGAACCGUGCUCCCAAGUCCUUUGGGGUAUUGUUCUGUUACAAUAACUGGAAUCCCUAAGAUCCGAGCUCCUUGCAACAGUCUCUGUCCCACACUAAUGAUGUCCCCAAAGUAUUUGAUCAACAGAGGAUUGAGCAUCA
B14: chr14:78183846:78183847:+_ENSG00000119705_ENST00000557342|hu_hu|hu_hu_hu_mus_False|18_38 (ssRNA)
RNA: GGGAGUUCUACAGUCCGACGAUCUCUCAGAAAUCUUUCUUCAUCAGAUGUUUGAGCUCCGUGCAAAGCCUUUGCUCUUUGAGCUUGAACGUGGAUCUUUACUCCAUAAAGCACUGUAUUUUCCUGUAAUUUUUUUUUUAAAGACAACAGAGGAUUGAGCAUCA

The list shows a part of the results.

For the assay, the target named is T1, UNK ZnF1-3 (human, UniProt Q9C0B0 31-174).
T1 sequence: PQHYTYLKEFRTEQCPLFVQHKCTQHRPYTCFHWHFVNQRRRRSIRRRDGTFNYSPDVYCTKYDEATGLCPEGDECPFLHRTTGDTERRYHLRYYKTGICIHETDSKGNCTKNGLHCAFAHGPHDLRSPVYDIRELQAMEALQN
As to the kind of experiment: nsRBNS (natural sequence RNA bind-n-seq); RBNS binding buffer (assumed for nsRBNS): 25 mM Tris pH 7.5, 150 mM KCl, 3 mM MgCl2, 0.01% Triton X-100, 500 ug/ml BSA, 20 U/ml SUPERase-In, 4 C; UNK is unkempt and MSI1 is Musashi-1; names of the RNAs are library labels; protein concentration not given here; high values mean tight binding.
B1: the binding signal stood at 1.01 enrichment R.
Molecule B2 yielded a binding signal of 0.685 enrichment R.
B3: the binding signal came to 0.948 enrichment R.
With B4 the figure was 2.61 enrichment R.
In turn, B5 came in with a binding signal of 1.59 enrichment R.
Molecule B6 displayed a binding signal of 0.848 enrichment R.
With B7 the figure was 1.28 enrichment R; with B8, 0.718 enrichment R.
B9: the binding signal was found to be 1.03 enrichment R.
Regarding B10, the binding signal amounted to 0.874 enrichment R.
As to B11, the binding signal is 0.73 enrichment R.
Turning to B12, the binding signal turned out to be 1.08 enrichment R.
B13 had a binding signal of 0.529 enrichment R.
For B14, the binding signal is 0.73 enrichment R.
